From the supplement of paper PMC3334620
Whole data set: some 33,000 sequences, median “E-score (-0.5 to 0.5)” near -0.054, cut for the highest 2% near 0.35. The list shows a part of the results.

target: T1, Stb5 (UniProt P38699); test: PBM E-score (8-mer binding enrichment) (E-score (-0.5 to 0.5)); higher = stronger / more preferred TF binding; most listed sequences are background and not binding sites; conditions: protein concentration: 200 nM; construct: GST-full length
T1 sequence: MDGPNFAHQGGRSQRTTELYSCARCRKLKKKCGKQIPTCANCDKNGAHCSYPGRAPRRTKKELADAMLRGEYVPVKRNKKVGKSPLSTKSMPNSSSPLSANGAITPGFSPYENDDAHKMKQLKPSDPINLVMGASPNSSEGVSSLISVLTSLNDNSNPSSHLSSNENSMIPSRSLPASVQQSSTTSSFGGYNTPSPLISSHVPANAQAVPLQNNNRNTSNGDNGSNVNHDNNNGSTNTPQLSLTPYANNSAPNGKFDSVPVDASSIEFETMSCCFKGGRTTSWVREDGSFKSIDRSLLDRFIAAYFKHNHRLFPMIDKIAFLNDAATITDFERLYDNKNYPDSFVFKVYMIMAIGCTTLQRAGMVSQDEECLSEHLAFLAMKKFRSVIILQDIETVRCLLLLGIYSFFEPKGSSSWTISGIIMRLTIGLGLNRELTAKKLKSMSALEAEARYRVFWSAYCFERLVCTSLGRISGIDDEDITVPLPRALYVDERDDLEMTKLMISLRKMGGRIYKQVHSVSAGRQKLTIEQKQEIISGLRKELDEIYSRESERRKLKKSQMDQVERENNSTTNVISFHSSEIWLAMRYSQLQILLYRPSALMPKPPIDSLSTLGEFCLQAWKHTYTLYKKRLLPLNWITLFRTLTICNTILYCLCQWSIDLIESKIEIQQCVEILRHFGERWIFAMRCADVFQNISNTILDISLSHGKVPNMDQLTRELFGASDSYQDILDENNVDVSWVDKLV
Summary of the method: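 Full-length yeast transcription factors or their DNA-binding domains, GST-tagged and expressed with PURExpress, were applied at about 100-200 nM to universal all-10-mer Agilent arrays. These arrays had been made double-stranded by primer extension on fresh or once-stripped slides. Detection used fluorescent anti-GST, normalisation used masliner, and E-scores for ungapped eight-base words pooled with reverse complements came from the Universal PBM Analysis Suite.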

Row | Sequence | PBM E-score
1 | GTCCGAGA | 0.184
2 | ATATTCGC | -0.0122
3 | AAGGGGAT | -0.0681
4 | AACTGTTC | 0.00432
5 | ACGCGCAG | -0.192
6 | GAAATCGC | 0.0466
7 | CCCCCTAG | -0.234
8 | ACTCATCT | -0.254
9 | GATACCCC | 0.138
10 | CTGGAGAA | -0.232
11 | CAATTCGG | 0.11
12 | AATCCAGC | -0.0112
13 | CCACACTA | -0.0645
14 | CCTATGTC | -0.0911
15 | AGCCCCAA | -0.305
16 | CTGAATAC | -0.137
17 | TCATGCAA | -0.222
18 | AAGTCGAT | -0.191
19 | AAATCTCC | 0.261
20 | CAGAAAAG | -0.0539
21 | CAGATAGG | -0.0158
22 | AGCGATAC | -0.091
23 | CGCGGAGC | 0.245
24 | CATAGTGC | -0.0321
25 | GGTTTGAA | 0.0123

Row | Sequence | PBM E-score
26 | AAGTTAGC | -0.155
27 | ATATTCCG | 0.171
28 | TGTGCACA | -0.322
29 | GCAGACGA | -0.025
30 | CCGTTAGA | 0.279
31 | CAACGTAG | -0.224
32 | ATACGACG | 0.14
33 | CGCTCTTA | 0.31
34 | CTGACCCA | 0.00169
35 | GCGGCACC | 0.353
36 | GCAAGTTA | -0.0697
37 | GCTGCGAC | -0.00769
38 | CCCGTTGC | 0.117
39 | ACCACTAA | -0.172
40 | AAGGTGGT | -0.0568
41 | ACGACAAT | -0.129
42 | ATTAGAGA | -0.289
43 | CGAACAAG | 0.144
44 | CCAGTCAG | -0.202
45 | GCATGATA | 0.00072
46 | AGTGTGTC | -0.222
47 | GTCCGAAA | 0.259
48 | ACACCCGT | 0.162
49 | GGGCTATA | 0.0715
50 | CGCAAGGA | -0.0543

Row | Sequence | PBM E-score
51 | CGTTAGAC | 0.0433
52 | ATTCGCAC | 0.00083
53 | CAAACTCG | -0.107
54 | AGGCCGCG | 0.292
55 | AGTATGAG | -0.118
56 | CAAATGAG | -0.17
57 | GAACGGAA | 0.0652
58 | ACCGGAAT | 0.136
59 | GATAGAGA | 0.0107
60 | AATATTGG | -0.13
61 | CGGATGCC | 0.0962
62 | AAAACGAA | -0.0215
63 | AGCCCGTC | 0.284
64 | AATGGTTG | -0.0296
65 | ACAGACGT | -0.141
66 | GCCACCCC | -0.13
67 | CACATATA | 0.134
68 | TGAAGTCA | -0.0878
69 | CATTGATA | 0.0233
70 | CACGACAG | -0.114
71 | GCCTATTA | -0.0797
72 | CCCTGGAC | -0.207
73 | AATTCTCC | 0.328
74 | CATGAACA | -0.0519
75 | AGGAACCC | -0.0964

Row | Sequence | PBM E-score
76 | ACCGCACT | 0.282
77 | CCTATTTA | -0.0269
78 | CAACAGGA | -0.233
79 | AATAACAG | 0.0452
80 | AGTCGAAG | -0.17
81 | ATACCCGC | 0.336
82 | CTACGGGA | 0.125
83 | ACCTCGCT | 0.0111
84 | CTTAAGGA | -0.0857
85 | ACGTGGCG | -0.0164
86 | ATGCTCTC | -0.145
87 | GTTCGAAC | 0.0601
88 | AGGTGCGG | 0.231
89 | TATATAGA | -0.047
90 | ATCGAAAG | -0.109
91 | GGTGCACA | -0.0478
92 | AAGACAGA | -0.187
93 | AAACATTT | -0.192
94 | CCCACGCA | -0.208
95 | ATTAATCC | 0.172
96 | TCTGCTAA | -0.145
97 | AGTTAATG | -0.0828
98 | ACGTGGTC | -0.248
99 | CTTGCTAC | -0.18
100 | ACTGGATA | -0.08

Row | Sequence | PBM E-score
101 | AACCCCGT | 0.448
102 | ACACTTAA | -0.117
103 | ATGTAGGG | 0.0205
104 | GATACTCC | 0.146
105 | AGCGAATC | -0.176
106 | AAACAGTC | -0.229
107 | CAGTATAA | 0.0599
108 | GCCTAGAC | -0.0806
109 | CGAGTCGA | -0.17
110 | TCGTTTCA | -0.0539
111 | CGGGAGAG | -0.166
112 | ACATTGCC | -0.0814
113 | CTTGACGA | -0.187
114 | GATACCAA | 0.181
115 | CATCGCGC | 0.0713
116 | GCCTACGC | -0.134
117 | CTCGCAAC | -0.118
118 | AATAATAG | 0.0496
119 | CAAAAAAG | -0.0163
120 | ACGTGGTA | -0.144
121 | AAAGTATG | -0.172
122 | ATCTGTCC | 0.113
123 | CGGCTTAC | -0.034
124 | AAGGAAAT | -0.156
125 | CGCAGCAG | -0.0406

Row | Sequence | PBM E-score
126 | AGGCAGGA | -0.308
127 | GTGCCGAA | 0.236
128 | CGAGAGTC | 0.00804
129 | AGTTGTAC | 0.0567
130 | AAGAACAG | -0.29
131 | CCATGGAG | -0.164
132 | CAAAGAAG | -0.0546
133 | GACAGAAA | 0.163
134 | AGCGGGTC | 0.18
135 | GACAGCAC | 0.0871
136 | AAATTGAA | -0.246
137 | AACTCGCA | -0.309
138 | GCACATTA | 0.0815
139 | AGGAGGGG | -0.302
140 | CTCACGAA | -0.0973
141 | AAGAGAAC | -0.0874
142 | ATATGGGA | -0.00398
143 | CCTAGCCA | -0.226
144 | TAGAGATA | 0.0252
145 | CCGACGTC | 0.268
146 | CTGGGCAC | -0.152
147 | CATACTAA | -0.21
148 | CTATTCTC | -0.022
149 | ACTGATAA | -0.115
150 | ACTCCTCT | -0.104

Row | Sequence | PBM E-score
151 | ATTGCTGA | -0.197
152 | GATAGAAC | 0.154
153 | AGATCTTC | -0.184
154 | ATCCGGAC | 0.258
155 | AAGAACGC | -0.0139
156 | CTCGAGCC | -0.0853
157 | ATTGGTTG | -0.309
158 | ATAAAAAT | 0.184
159 | CTGTAATA | 0.179
160 | CCCGGGGA | 0.252
161 | ATTTACAC | 0.0234
162 | CCCCATTA | -0.289
163 | GAATGTAC | -0.121
164 | CCGGCCAG | 0.229
165 | GGATCAAC | 0.0826
166 | CAATGTAC | -0.19
167 | GATGACTA | -0.194
168 | ATACTAGC | -0.0323
169 | AACGTTAA | 0.111
170 | ATTAGGAA | -0.0615
171 | AGCGGACT | 0.39
172 | CGGCTAAC | 0.0948
